Experimental data taken from the supplement of paper PMC4967469.
By IC50 is meant the dose at which the fit gives 50% viability; fits outside the tested doses are given as limits. The AUC spans the tested range (256-fold, ending at the top dose) of the same fit; the more sensitive the line, the further below 1. For part of these data: Any top dose called inferred is not printed in the source and was worked back from the curve model. For part of these data: Drugs with an entry number were screened twice under separate entries, and the two screens often disagree.

Legend:
Experiment in all cases: Viability of human cancer cell lines after 72 h of drug (GDSC screen)
Tamoxifen = compound: CC/C(=C(\c1ccccc1)c1ccc(OCCN(C)C)cc1)c1ccccc1 [Tamoxifen]; details: top dose 5 µM
Method: (§1)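 Human cancer cell lines in 384-well plates, medium with 10% serum, drug for 72 h over a 256-fold dose range (nine 2-fold or five 4-fold steps up to the top dose). Adherent lines were fixed and stained with the nucleic acid dye Syto60, suspension lines read with resazurin; signal relative to control wells, capped at 0 and 100%. One two-parameter sigmoid per drug and line, fitted in a mixed model over all curves with the slope shared within a line.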

VNLG/124 = compound: CCCC(=O)OCc1ccc(OC(=O)/C=C(C)/C=C/C=C(C)/C=C/C2=C(C)CCCC2(C)C)cc1 [VNLG/124]; details: top dose 5.12 µM; top dose inferred
Method: as §1

Elesclomol = compound: CN(NC(=O)CC(=O)NN(C)C(=S)c1ccccc1)C(=S)c1ccccc1 [Elesclomol]; details: top dose 0.2 µM; top dose inferred
Method: as §1

HG-5-88-01 = compound: COc1cc(N2CCC(C(N)=O)CC2)ccc1Nc1nc(N)c(Cl)c(Nc2ccccc2S(=O)(=O)C(C)C)n1 [HG-5-88-01]; details: top dose 10 µM; top dose inferred
Method: as §1

Bleomycin = compound: Cc1c(N)nc([C@H](CC(N)=O)NC[C@H](N)C(N)=O)nc1C(=O)N[C@H](C(=O)N[C@H](C)[C@@H](O)[C@H](C)C(=O)N[C@H](C(=O)NCCc1nc(-c2nc(C(=O)NCCC[S+](C)C)cs2)cs1)[C@@H](C)O)[C@@H](OC1OC(CO)C(O)C(O)C1OC1OC(CO)C(O)C(OC(N)=O)C1O)c1cnc[nH]1 [Bleomycin]
Method: as §1

Masitinib = compound: Cc1ccc(NC(=O)c2ccc(CN3CCN(C)CC3)cc2)cc1Nc1nc(-c2cccnc2)cs1 [Masitinib]; details: top dose 20 µM
Method: as §1

LAQ824 = compound: O=C(/C=C/c1ccc(CN(CCO)CCc2c[nH]c3ccccc23)cc1)NO [LAQ824]; details: top dose 1.024 µM; top dose inferred
Method: as §1

OSI-930 = compound: O=C(Nc1ccc(OC(F)(F)F)cc1)c1sccc1NCc1ccnc2ccccc12 [OSI-930]; details: top dose 10.24 µM
Method: as §1

BX-912 = compound: O=C(Nc1cccc(Nc2ncc(Br)c(NCCc3cnc[nH]3)n2)c1)N1CCCC1 [BX-912]; details: top dose 10.24 µM; top dose inferred
Method: as §1

NSC-87877 = compound: O=S(=O)(O)c1ccc2cc(N=Nc3cc(S(=O)(=O)O)c4cccnc4c3O)ccc2c1 [NSC-87877]; details: top dose 16 µM; top dose inferred
Method: as §1

[1] = top dose 64 µM, screen: GDSC drug entry 190
[2] = top dose 50 µM, screen: GDSC drug entry 1378, top dose inferred

Cell Line	AUC (Tamoxifen)	IC50 (Tamoxifen) [µM]	AUC (VNLG/124)	IC50 (VNLG/124) [µM]	AUC (Elesclomol)	IC50 (Elesclomol) [µM]	AUC (HG-5-88-01)	IC50 (HG-5-88-01) [µM]	AUC (Bleomycin; [1])	IC50 (Bleomycin; [1]) [µM]	AUC (Masitinib)	IC50 (Masitinib) [µM]	AUC (LAQ824)	IC50 (LAQ824) [µM]	AUC (OSI-930)	IC50 (OSI-930) [µM]	AUC (BX-912)	IC50 (BX-912) [µM]	AUC (NSC-87877)	IC50 (NSC-87877) [µM]	AUC (Bleomycin; [2])	IC50 (Bleomycin; [2]) [µM]
KYSE-450 (oesophagus, adherent)	0.985	> 5	0.964	> 5.12	0.556	0.0176	0.987	> 10	0.412	2.34	0.885	19.7	0.437	0.0435	0.988	> 10.2	0.884	10.1	0.965	> 16	–	–
L-428 (Hodgkin lymphoma, suspension)	0.99	> 5	0.989	> 5.12	0.895	0.193	0.969	> 10	0.895	61.3	0.953	> 20	0.517	0.0708	0.961	> 10.2	0.981	> 10.2	0.986	> 16	0.895	48.2
LAN-6 (neuroblastoma, adherent)	0.981	> 5	0.969	> 5.12	0.668	0.0404	0.889	> 10	0.686	14.7	0.864	> 20	0.761	0.427	0.985	> 10.2	0.917	> 10.2	0.982	> 16	0.889	> 50
LB373-MEL-D (melanoma, adherent)	0.989	> 5	0.99	> 5.12	0.529	0.015	0.888	> 10	0.815	34.4	0.979	> 20	0.538	0.081	0.979	> 10.2	0.981	> 10.2	0.99	> 16	0.884	> 50
LB771-HNC (head and neck, adherent)	0.972	> 5	0.981	> 5.12	0.809	0.138	0.793	5.9	0.837	59.3	0.939	> 20	0.62	0.149	0.968	> 10.2	0.923	> 10.2	0.982	> 16	0.846	> 50
LB831-BLC (bladder, adherent)	0.985	> 5	0.985	> 5.12	0.645	0.0317	0.966	> 10	0.628	9.08	0.947	> 20	0.584	0.109	0.98	> 10.2	0.885	> 10.2	0.987	> 16	0.687	10.6
LB1047-RCC (kidney, adherent)	0.959	> 5	0.959	> 5.12	0.468	0.0101	0.875	> 10	0.13	< 0.25	0.872	> 20	0.376	0.0278	0.968	> 10.2	0.924	> 10.2	0.975	> 16	0.371	1.31
LB2241-RCC (kidney, adherent)	0.956	> 5	0.982	> 5.12	0.696	0.0476	0.858	9.87	0.29	0.94	0.979	> 20	0.489	0.0596	0.981	> 10.2	0.984	> 10.2	0.984	> 16	0.281	0.687
LB2518-MEL (melanoma, adherent)	0.986	> 5	0.987	> 5.12	0.765	0.0771	0.914	> 10	0.241	0.684	0.88	> 20	0.513	0.0694	0.924	> 10.2	0.968	> 10.2	0.986	> 16	0.805	26.9
LC-1-sq (lung squamous cell carcinoma, adherent)	0.983	> 5	0.955	> 5.12	0.917	> 0.2	0.983	> 10	0.812	41.6	0.935	> 20	0.418	0.0366	0.97	> 10.2	0.933	> 10.2	0.985	> 16	0.841	43.8
LCLC-97TM1 (large cell lung carcinoma, adherent)	0.977	> 5	0.943	> 5.12	0.858	0.19	0.837	7.61	0.348	1.46	0.784	9.35	0.404	0.0341	0.813	6.22	0.681	2.16	0.958	> 16	0.175	0.288
